Laboratory results from the supplement of paper PMC10126150.
Values marked as one replicate rest on one cluster of the flow cell; about a third of the high ones do not repeat.

Tested on: ATP
Assay: switch fluorescence ratio, 500 uM ATP over buffer (Cy3 cluster intensity, sum of 5 cycles each) (fold (ratio)); higher = stronger signal-on switching upon ATP binding; sequences stand for … in TCGTCGGCAGCGTCAGATGTGTATAAGAGACAGTTTTTTTTTTTTTTTTTTTTTTTTT…TC
Details: aptamer strand: ATP DNA aptamer (quencher-CACCTGGGGGAGTATTGCGGAGGAAGG + anchor), 100 nM annealed; ATP concentration: 500 uM; one replicate
How it was run: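 Between each of five buffer/ATP cycles, the flow-cell was stripped with NaOH and re-annealed. Each cycle imaged Cy3-labelled switching-strand clusters, annealed to 100 nM quencher-labelled ATP aptamer on a modified Illumina MiSeq flow-cell, first in selection buffer and then after 15 min with 500 uM ATP at 22 °C. The fluorescence ratio is summed target-cycle over summed buffer-cycle Cy3 intensity per cluster, averaged per switch-domain sequence, with clusters outside 100-1000 RFU excluded.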
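Note: ATP exposure 15 min at 22 °C before imaging.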

**Q.** With ATCTTCATGT as the sequence, how does the switch fluorescence ratio read?
**A.** 1.02

**Q.** For ATCTTCCGAG, which switch fluorescence ratio is on record?
**A.** 3.34

**Q.** With ATCTTGCCAC as the sequence, how does the switch fluorescence ratio read?
**A.** 1.05

**Q.** For ATCTTGCCCT, which switch fluorescence ratio is on record?
**A.** 0.981

**Q.** For ATCTTGGTGG, which switch fluorescence ratio is on record?
**A.** 1.01

**Q.** With ATCTTGTGG as the sequence, how does the switch fluorescence ratio read?
**A.** 1

**Q.** Which switch fluorescence ratio does the source give for ATCTTTAGGT here?
**A.** 0.982

**Q.** How did the switch fluorescence ratio turn out when ATCTTTTTGA was run?
**A.** 1.02

**Q.** For ATGAAAGAGA, which switch fluorescence ratio is on record?
**A.** 0.984

**Q.** ATGAACAATG was tested. Which switch fluorescence ratio did it give?
**A.** 1.01

**Q.** How did the switch fluorescence ratio turn out when ATGAACCCTT was run?
**A.** 1

**Q.** Which switch fluorescence ratio does the source give for ATGAAGCACG here?
**A.** 1.08

**Q.** ATGAATAACA was tested. Which switch fluorescence ratio did it give?
**A.** 1.03

**Q.** With ATGAATACTT as the sequence, how does the switch fluorescence ratio read?
**A.** 0.948

**Q.** ATGAATAGTG was tested. Which switch fluorescence ratio did it give?
**A.** 0.988

**Q.** For ATGAATGG, which switch fluorescence ratio is on record?
**A.** 1.02

**Q.** Which switch fluorescence ratio does the source give for ATGACACCCA here?
**A.** 1.18

**Q.** With ATGACGCCGC as the sequence, how does the switch fluorescence ratio read?
**A.** 1.76

**Q.** Which switch fluorescence ratio does the source give for ATGACGGGTA here?
**A.** 0.949

**Q.** How did the switch fluorescence ratio turn out when ATGACTGTAA was run?
**A.** 1.05

**Q.** ATGACTTCTA was tested. Which switch fluorescence ratio did it give?
**A.** 1

**Q.** Which switch fluorescence ratio does the source give for ATGACTTTGC here?
**A.** 0.955

**Q.** How did the switch fluorescence ratio turn out when ATGAGAACT was run?
**A.** 1.03

**Q.** Which switch fluorescence ratio does the source give for ATGAGAGGTA here?
**A.** 1.03

**Q.** How did the switch fluorescence ratio turn out when ATGAGAGTCA was run?
**A.** 0.996

**Q.** Which switch fluorescence ratio does the source give for ATGAGATCG here?
**A.** 1.02

**Q.** Which switch fluorescence ratio does the source give for ATGAGGACTA here?
**A.** 1.02

**Q.** ATGAGGAGCC was tested. Which switch fluorescence ratio did it give?
**A.** 0.986

**Q.** ATGAGGATCT was tested. Which switch fluorescence ratio did it give?
**A.** 1.03

**Q.** With ATGAGGGTGG as the sequence, how does the switch fluorescence ratio read?
**A.** 0.936

**Q.** How did the switch fluorescence ratio turn out when ATGAGTGAGT was run?
**A.** 0.987

**Q.** For ATGAGTGGGT, which switch fluorescence ratio is on record?
**A.** 1.01

**Q.** Which switch fluorescence ratio does the source give for ATGAGTGTGC here?
**A.** 1

**Q.** With ATGAGTTATG as the sequence, how does the switch fluorescence ratio read?
**A.** 1.05

**Q.** Which switch fluorescence ratio does the source give for ATGAGTTCGT here?
**A.** 0.992

**Q.** For ATGATAAGAG, which switch fluorescence ratio is on record?
**A.** 0.987

**Q.** ATGATAATTC was tested. Which switch fluorescence ratio did it give?
**A.** 1.04

**Q.** How did the switch fluorescence ratio turn out when ATGATACCA was run?
**A.** 0.936

**Q.** How did the switch fluorescence ratio turn out when ATGATATACG was run?
**A.** 1.04

**Q.** With ATGATATCAG as the sequence, how does the switch fluorescence ratio read?
**A.** 1

**Q.** How did the switch fluorescence ratio turn out when ATGATCGCTG was run?
**A.** 1.02

**Q.** Which switch fluorescence ratio does the source give for ATGATGACGG here?
**A.** 1.03

**Q.** How did the switch fluorescence ratio turn out when ATGATGCAGG was run?
**A.** 1.02

**Q.** ATGATGTGA was tested. Which switch fluorescence ratio did it give?
**A.** 0.981

**Q.** With ATGATTCCGA as the sequence, how does the switch fluorescence ratio read?
**A.** 1

**Q.** For ATGATTGGCG, which switch fluorescence ratio is on record?
**A.** 1.06

**Q.** ATGCAATAAC was tested. Which switch fluorescence ratio did it give?
**A.** 2.71

**Q.** For ATGCAATATG, which switch fluorescence ratio is on record?
**A.** 1.2

**Q.** Which switch fluorescence ratio does the source give for ATGCACACCA here?
**A.** 1.13

**Q.** How did the switch fluorescence ratio turn out when ATGCACCTAG was run?
**A.** 1.01

**Q.** How did the switch fluorescence ratio turn out when ATGCACGATG was run?
**A.** 1

**Q.** For ATGCAGCTTT, which switch fluorescence ratio is on record?
**A.** 1.06

**Q.** ATGCATTAAA was tested. Which switch fluorescence ratio did it give?
**A.** 1.03

**Q.** With ATGCCACCGA as the sequence, how does the switch fluorescence ratio read?
**A.** 1.05

**Q.** ATGCCAGAGC was tested. Which switch fluorescence ratio did it give?
**A.** 1

**Q.** How did the switch fluorescence ratio turn out when ATGCCATTGA was run?
**A.** 0.958

**Q.** For ATGCCGCCTT, which switch fluorescence ratio is on record?
**A.** 0.968

**Q.** With ATGCCGTGAC as the sequence, how does the switch fluorescence ratio read?
**A.** 0.995

**Q.** For ATGCGAGAAA, which switch fluorescence ratio is on record?
**A.** 0.96

**Q.** ATGCGAGTTA was tested. Which switch fluorescence ratio did it give?
**A.** 0.995

**Q.** With ATGCGCGTGT as the sequence, how does the switch fluorescence ratio read?
**A.** 1.02

**Q.** Which switch fluorescence ratio does the source give for ATGCGGGTC here?
**A.** 0.864

**Q.** ATGCGGGTCC was tested. Which switch fluorescence ratio did it give?
**A.** 1.03

**Q.** ATGCGTCTTT was tested. Which switch fluorescence ratio did it give?
**A.** 0.984

**Q.** For ATGCTCAGAC, which switch fluorescence ratio is on record?
**A.** 1

**Q.** For ATGCTCCTAT, which switch fluorescence ratio is on record?
**A.** 1.02

**Q.** With ATGCTCGGGC as the sequence, how does the switch fluorescence ratio read?
**A.** 0.985

**Q.** For ATGCTCGTTA, which switch fluorescence ratio is on record?
**A.** 1.02

**Q.** Which switch fluorescence ratio does the source give for ATGCTGACTT here?
**A.** 0.957

**Q.** Which switch fluorescence ratio does the source give for ATGCTGTGGC here?
**A.** 0.989

**Q.** ATGCTTCGTA was tested. Which switch fluorescence ratio did it give?
**A.** 1.06

**Q.** With ATGCTTTTGC as the sequence, how does the switch fluorescence ratio read?
**A.** 1.02

**Q.** How did the switch fluorescence ratio turn out when ATGGAGGAAT was run?
**A.** 1.16

**Q.** How did the switch fluorescence ratio turn out when ATGGAGGCCC was run?
**A.** 0.976

**Q.** For ATGGATCGCG, which switch fluorescence ratio is on record?
**A.** 0.968

**Q.** For ATGGATGTCT, which switch fluorescence ratio is on record?
**A.** 1.02

**Q.** How did the switch fluorescence ratio turn out when ATGGATGTTT was run?
**A.** 0.982

**Q.** For ATGGATTAC, which switch fluorescence ratio is on record?
**A.** 1.05

**Q.** How did the switch fluorescence ratio turn out when ATGGATTTGA was run?
**A.** 1.02

**Q.** ATGGCCTTGT was tested. Which switch fluorescence ratio did it give?
**A.** 1.02

**Q.** Which switch fluorescence ratio does the source give for ATGGCGATAG here?
**A.** 1.02

**Q.** For ATGGCTCCGC, which switch fluorescence ratio is on record?
**A.** 1.66

**Q.** ATGGCTCTAT was tested. Which switch fluorescence ratio did it give?
**A.** 0.98

**Q.** For ATGGGAACCC, which switch fluorescence ratio is on record?
**A.** 1

**Q.** For ATGGGAGCTC, which switch fluorescence ratio is on record?
**A.** 1.02

**Q.** With ATGGGATTTT as the sequence, how does the switch fluorescence ratio read?
**A.** 0.981

**Q.** How did the switch fluorescence ratio turn out when ATGGGCATCA was run?
**A.** 0.963

**Q.** Which switch fluorescence ratio does the source give for ATGGGCCT here?
**A.** 1.03

**Q.** ATGGGCCTTG was tested. Which switch fluorescence ratio did it give?
**A.** 0.987

**Q.** For ATGGGGAGGG, which switch fluorescence ratio is on record?
**A.** 1.03

**Q.** ATGGGTAAAT was tested. Which switch fluorescence ratio did it give?
**A.** 0.976

**Q.** Which switch fluorescence ratio does the source give for ATGGGTAGGT here?
**A.** 1.02

**Q.** Which switch fluorescence ratio does the source give for ATGGGTGCTC here?
**A.** 1.02

**Q.** How did the switch fluorescence ratio turn out when ATGGGTGTC was run?
**A.** 1.02

**Q.** ATGGTACCTG was tested. Which switch fluorescence ratio did it give?
**A.** 1.02

**Q.** ATGGTAGCAG was tested. Which switch fluorescence ratio did it give?
**A.** 1.04

**Q.** With ATGGTATCTT as the sequence, how does the switch fluorescence ratio read?
**A.** 0.983

**Q.** For ATGGTATGGC, which switch fluorescence ratio is on record?
**A.** 0.958

**Q.** With ATGGTATGTG as the sequence, how does the switch fluorescence ratio read?
**A.** 1.01

**Q.** For ATGGTCGTGT, which switch fluorescence ratio is on record?
**A.** 1.01

**Q.** How did the switch fluorescence ratio turn out when ATGGTGAAGA was run?
**A.** 0.947
